Assay results taken from article PMC11911400, “Mechanism of ASF1 engagement by CDAN1” (Nature Communications, 2025).
Substitutions are numbered along the chain they refer to. No constants are given. Whether binding was seen depends on the method and setting. Binding seen in cells or lysates may run through a third protein.

Amino acid sequences for entries named in this document (tags omitted).
UniProt Q9NVP2: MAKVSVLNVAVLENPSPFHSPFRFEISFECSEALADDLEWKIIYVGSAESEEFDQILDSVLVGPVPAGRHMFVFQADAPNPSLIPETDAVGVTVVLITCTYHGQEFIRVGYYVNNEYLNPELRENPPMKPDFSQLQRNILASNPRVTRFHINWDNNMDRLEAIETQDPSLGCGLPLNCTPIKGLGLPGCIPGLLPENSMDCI

Tests used:
[1] = molecular target: T1, Strep-CDAN1 HMHA1* HMHA2* BDA2* (three elements mutated) (human) (UniProt Q8IWY9); assay: pull-down; Strep-Tactin pulldown of transiently transfected ST-CDAN1 variants from Flp-In 293 T-REx lysates; endogenous ASF1A, ASF1B and CDIN1 detected by immunoblotting; IP buffer with 1% Triton X-100, 1 hr at 4 °C
T1 sequence: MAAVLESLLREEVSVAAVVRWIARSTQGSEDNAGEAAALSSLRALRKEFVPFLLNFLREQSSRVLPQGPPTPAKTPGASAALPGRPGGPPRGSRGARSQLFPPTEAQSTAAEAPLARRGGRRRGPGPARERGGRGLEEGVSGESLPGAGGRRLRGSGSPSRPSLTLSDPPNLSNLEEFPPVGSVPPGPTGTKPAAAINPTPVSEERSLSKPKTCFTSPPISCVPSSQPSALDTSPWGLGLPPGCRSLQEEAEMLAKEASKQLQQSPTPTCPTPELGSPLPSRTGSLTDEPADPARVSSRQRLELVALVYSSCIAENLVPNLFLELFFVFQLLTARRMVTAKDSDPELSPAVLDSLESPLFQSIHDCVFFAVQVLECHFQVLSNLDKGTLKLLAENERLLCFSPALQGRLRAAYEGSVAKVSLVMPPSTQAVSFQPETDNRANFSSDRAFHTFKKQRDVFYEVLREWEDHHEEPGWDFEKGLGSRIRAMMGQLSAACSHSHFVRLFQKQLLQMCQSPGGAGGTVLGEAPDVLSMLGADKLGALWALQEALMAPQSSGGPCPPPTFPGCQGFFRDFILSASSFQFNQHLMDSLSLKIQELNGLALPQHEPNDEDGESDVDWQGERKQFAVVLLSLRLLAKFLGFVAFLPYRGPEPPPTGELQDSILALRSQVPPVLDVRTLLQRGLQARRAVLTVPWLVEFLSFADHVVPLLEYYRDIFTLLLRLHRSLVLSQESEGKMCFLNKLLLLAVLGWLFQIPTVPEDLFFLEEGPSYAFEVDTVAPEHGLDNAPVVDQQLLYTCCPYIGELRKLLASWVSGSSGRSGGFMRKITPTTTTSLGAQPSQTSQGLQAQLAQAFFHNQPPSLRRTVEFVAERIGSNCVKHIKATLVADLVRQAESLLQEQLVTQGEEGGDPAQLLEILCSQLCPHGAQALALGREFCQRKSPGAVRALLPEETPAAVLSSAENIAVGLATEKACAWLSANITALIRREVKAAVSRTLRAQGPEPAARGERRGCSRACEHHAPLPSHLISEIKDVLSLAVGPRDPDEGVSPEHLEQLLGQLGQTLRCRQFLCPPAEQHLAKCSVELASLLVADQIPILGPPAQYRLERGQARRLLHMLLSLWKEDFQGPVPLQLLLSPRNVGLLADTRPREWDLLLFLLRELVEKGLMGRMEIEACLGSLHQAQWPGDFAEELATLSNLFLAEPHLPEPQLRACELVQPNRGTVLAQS

[2] = molecular target: T2, Strep-CDAN1 HMHA1* BDA1* BDA2* (three elements mutated) (human) (UniProt Q8IWY9); assay: as above
T2 sequence: T1 sequence with A251R, A255R, A258R, M824A, R825A, K826A

Q: What does the source list for “endogenous ASF1B (from UniProt Q9NVP2 1-202)”?
A: binding [1]: no binding; binding [2]: no binding
